Test results from the supplement of paper PMC4723716.
Whole data set: some 3,600 compounds, median “viability index relative to DMSO control” near 0.81, cut for the lowest 2% near 0.13. The list shows a part of the results.
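Further: 384-well serum-free SaLSSA: MitoTracker Red CMXRos staining with saponin lysis, high-content imaging, treated-well particle count divided by plate-mean count of DMSO wells.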

These molecules were tested on Plasmodium falciparum NF54 stage V gametocytes (assay: viability index relative to DMSO control (fraction); higher = less gametocyte killing). Conditions: 1.25 µM, incubation time: 72 h.
`CC(C)NCC(O)Cn1c2ccc(Cl)cc2c2cc(Cl)ccc21` (centres undefined) showed a viability index of 0.419.
For `Cc1ccc(C)n1-c1ccc(C(=O)N2CCC(C)CC2)cc1`, the viability index was 1.04.
Work on `O=C(c1ccc(N2CC3CC(C2)c2cccc(=O)n2C3)c(NS(=O)(=O)c2ccc3c(c2)OCCO3)c1)N1CCN(c2ccccn2)CC1` (centres undefined) yielded a viability index of 0.967.
`O=C(CCNS(=O)(=O)c1ccc(Br)s1)N1CCc2ccccc2C1` was tested, and the viability index was 0.896.
`Clc1ccc(-c2c[n+](-c3ccccc3)c3n2CCS3)cc1` gave a viability index of 0.756.
In the case of `CN(c1ncnc2sc3c(c12)CCCC3)C1CCCCC1`, the viability index was 0.56.
`Cn1ccnc1C(=O)NNc1ncc(C(F)(F)F)cc1Cl` was tested, and the viability index was 0.294.
`CC(C)C[C@@H](NC(=O)[C@H](C)NC(=O)CNC(=O)[C@@H](NC=O)C(C)C)C(=O)N[C@@H](C)C(=O)N[C@@H](C(=O)N[C@H](C(=O)N[C@@H](C(=O)N[C@@H](Cc1c[nH]c2ccccc12)C(=O)N[C@H](CC(C)C)C(=O)N[C@@H](Cc1c[nH]c2ccccc12)C(=O)N[C@H](CC(C)C)C(=O)N[C@@H](Cc1c[nH]c2ccccc12)C(=O)N[C@H](CC(C)C)C(=O)N[C@@H](Cc1c[nH]c2ccccc12)C(=O)NCCO)C(C)C)C(C)C)C(C)C` gave a viability index of 0.313.
With `CCOC(=O)c1sc2nc(N)c(C#N)c(-c3cccs3)c2c1N` the viability index was 0.739.
In the case of `COc1ccc(C2=Nc3cc(C(=O)NCCN4CCOCC4)ccc3CN2C(C)C)cc1`, the viability index was 0.5.
Work on `Cc1cccc(Nc2nc3nonc3[nH]c2=NN=Cc2cccs2)c1C` yielded a viability index of 0.73.
With `COc1ccc(N2CCN(c3ncnc4sc(C(=O)NCc5cccnc5)c(C)c34)CC2)cc1` the viability index was 0.951.
Work on `CCOC(=O)N1CCN(C(=O)c2cnc3ccc(C)cn3c2=O)CC1` yielded a viability index of 1.46.
Work on `COc1ccc2nc(C)cc(NN=Cc3cccs3)c2c1` yielded a viability index of 0.638.
Molecule `CC(C)c1ccc(C=NNC(=O)c2ccccc2O)cc1` has a viability index of 0.776.
With `C(#Cc1ccccc1)C[N+]1(CC#Cc2ccc(C#CC[N+]3(CC#Cc4ccccc4)CCCCC3)cc2)CCCCC1` the viability index was 0.783.
`c1ccc(OCCOc2ccc(Nc3c4ccccc4nc4ccccc34)cc2)cc1` showed a viability index of 0.525.
Work on `COc1ccc(Nc2ncnc3[nH]c(-c4cccc([N+](=O)[O-])c4)cc23)cc1` yielded a viability index of 0.504.
With `CN(C)c1ccc(C=C2SC(=Nc3ccccc3Cl)NC2=O)cc1` the viability index was 0.717.
Work on `CC(Oc1ccc(Cl)cc1Cl)c1nc(-c2ccc(NC(=O)c3cccs3)cc2)no1` (centres undefined) yielded a viability index of 1.11.
`CC(C)CSc1nc2sc3c(c2c(=O)n1-c1ccccc1)CCN(Cc1ccccc1)C3` was tested, and the viability index was 0.884.
With `Cc1ccc(Sc2cc(C(=O)NCc3ccco3)c3ccccc3n2)cc1` the viability index was 1.1.
`CCN1C(=Cc2cccc[n+]2C)C=Cc2ccc(C)cc21` was tested, and the viability index was 1.04.
`CCC(C)OC(=O)C1=C(C)NC2=C(C(=O)CC(c3ccc(Cl)cc3)C2)C1c1ccc(Cl)cc1` (centres undefined) showed a viability index of 0.871.
Molecule `OC(CN1CCN(CC=Cc2ccccc2)CC1)Cn1c2ccc(Cl)cc2c2cc(Cl)ccc21` (centres undefined) has a viability index of 0.424.
In the case of `COc1cccc(C=NNC(=O)c2ccccc2O)c1O`, the viability index was 1.01.
Work on `N=c1n(Cc2ccccc2)c2ccccc2n1CC(O)c1ccc(Cl)c(Cl)c1` (centres undefined) yielded a viability index of 0.222.
In the case of `COc1ccc(C2CC(=O)C3=C(C2)NC(C)=C(C(=O)OC2CCCCC2)C3c2ccc(F)cc2)cc1OC` (centres undefined), the viability index was 0.664.
In the case of `CCOC(=O)N1CCN(C(=O)CCCCn2c(=S)[nH]c3ccsc3c2=O)CC1`, the viability index was 1.07.
`CN(c1ccccc1)S(=O)(=O)c1ccc(C(=O)Nc2ccc(-c3nc4ccccc4[nH]3)cc2)cc1` gave a viability index of 0.545.
`FC(F)(F)COc1nc(N2CCCCC2)nc(N(c2ccccc2)c2ccccc2)n1` was tested, and the viability index was 0.804.
For `CCOc1ccc2nc(C)cc(Nc3ccc(OC)cc3)c2c1`, the viability index was 0.735.
`O=C(c1ccncc1)N1N=C(c2c(-c3ccccc3)c3cc(Br)ccc3[nH]c2=O)CC1c1ccccc1` (centres undefined) was tested, and the viability index was 0.733.
In the case of `CC[n+]1c(C=Cc2ccc(N(C)C)cc2)sc2cc(NC(C)=O)ccc21`, the viability index was 0.826.
In the case of `COc1cccc(OC)c1C(=O)Nc1cc(C(F)(F)F)ccc1Cl`, the viability index was 0.971.
With `CCOC(=O)C1=C(N)N(c2cccc([N+](=O)[O-])c2)C2=C(C(=O)CC(C)(C)C2)C1c1ccc(Cl)cc1` (centres undefined) the viability index was 0.607.
With `COc1ccc(C2C(C(=O)c3ccccc3)=C(O)C(=O)N2c2cccc(Cl)c2)c(OC)c1` (centres undefined) the viability index was 0.845.
`Cc1ccc2nc(-c3ccccc3)cc(C(=O)Nc3ccc(Cl)cc3)c2c1` was tested, and the viability index was 1.03.
`CCOC(=O)C1(Cc2ccc(OC)cc2)CCN(C(=O)c2scc3c2OCCO3)CC1` was tested, and the viability index was 0.923.
`COc1ccc(C2=C(c3ccc(OC)cc3)C3(c4ccccc4)C(=O)C2(c2ccccc2)C2C(=O)N(c4ccccc4[N+](=O)[O-])C(=O)C23)cc1` (centres undefined) gave a viability index of 0.585.
`COc1ccc(OCC(=O)Nc2cccc(NC(=O)COc3ccc(OC)cc3)n2)cc1` showed a viability index of 1.
`Cc1cc(Nc2cccc(Cl)c2)nc2ccc(NC(=O)c3cccnc3)cc12` showed a viability index of 0.912.
For `COC(=O)C1C(=O)C2=C(CC1C)NC(=O)CC2c1cccc(Cl)c1Cl` (centres undefined), the viability index was 0.719.
`CC(C)CN1C(=O)c2ccccc2C(C(=O)Nc2ccc(C(C)C)cc2)C1c1cccs1` (centres undefined) showed a viability index of 0.281.
`CCOC(=O)C(=CNc1ccc(I)cn1)C(=O)OCC` was tested, and the viability index was 0.583.
Molecule `COc1ccc2c(ccc(C=C3C=CC=CN3C)[n+]2C)c1` has a viability index of 0.873.
With `CCCCCCCCCn1c2c(c(=N)c3c1CCC3)CCCC2` the viability index was 0.345.
Molecule `Cc1ccc(-n2c(C)cc(C=C3SC(=Nc4ccc(Cl)cc4)NC3=O)c2C)cc1` has a viability index of 0.589.
`Cn1nc(C(=O)N2CCc3ccccc3C2)c2c1CCC(N1CCN(Cc3cccc(F)c3)CC1)C2` (centres undefined) gave a viability index of 1.35.
`C=C(C)CSc1nc(N)c2c3c(sc2n1)CN(CCC)CC3` showed a viability index of 1.03.
`CCOC(=O)c1sc(NC(=O)C(C)Sc2nnc(CNC(=O)c3cccc(F)c3)n2-c2cccc(C)c2)c(C(=O)OCC)c1C` (centres undefined) gave a viability index of 0.917.
`COc1ccccc1CNC(=O)C1c2ccccc2C(=O)N2CCc3ccccc3C12` (centres undefined) gave a viability index of 0.827.
With `O=C(COC(=O)c1ccc2c(c1)C(=O)N(c1ccc3ccccc3c1)C2=O)c1ccc(Br)cc1` the viability index was 0.793.
With `Cc1sc2c(c1C)CN(Cc1ccco1)CN2C(=O)c1ccco1` the viability index was 0.736.
With `COc1ccc2nc(C)cc(Nc3ccc(N4CCN(C)CC4)cc3)c2c1` the viability index was 0.873.
Work on `Cc1ccc(C(=O)NNc2nc(Nc3ccccc3)nc(N3CCCC3)n2)cc1` yielded a viability index of 0.679.
`Cc1nc2ncccn2c1-c1csc(Nc2ccccn2)n1` was tested, and the viability index was 1.06.
With `C#CCNC(=O)c1ccc(OC2CCN(CC3CCCCC3)CC2)c(Cl)c1` the viability index was 0.774.
`Cc1cccc2cc(C(c3nnnn3C3CCCC3)N3CCCC4(CCCCC4)C3)c(=O)[nH]c12` (centres undefined) was tested, and the viability index was 1.19.
`Cc1cccc(-c2cc3nc(C)c(C)c(O)n3n2)c1` was tested, and the viability index was 0.776.
`COc1ccc(C=CC(=O)NC(=O)c2ccccc2O)cc1` showed a viability index of 0.788.
`COc1ccc(C2CC(=O)C3=C(C2)NC(C)=C(C(=O)OC2CCCC2)C3c2ccccc2F)cc1OC` (centres undefined) gave a viability index of 0.548.
`OCCNc1nc(Nc2ccccc2O)nc2ccccc12` gave a viability index of 1.07.
`COc1ccccc1-c1nnc(Nc2nc3cc4c(cc3s2)OCO4)o1` was tested, and the viability index was 0.719.
`CC1CCCCN1CCCNCc1ccc(OCc2ccccc2)cc1` (centres undefined) gave a viability index of 0.699.
Work on `CCOC(=O)C1=CN(C)C=C(C(=O)OCC)C1c1cc(Br)c(OCC)c(OC)c1` yielded a viability index of 0.651.
For `CCOc1nc2c(c(=O)n(C)c(=O)n2C)n1Cc1cccc(Br)c1`, the viability index was 1.03.
For `Cc1cc(Nc2ccccc2)nc(Nc2ccccc2)n1`, the viability index was 0.538.
`Cc1ccccc1C=NNc1nc2ccccc2[nH]1` was tested, and the viability index was 0.83.
For `Cc1cccc(NC(=O)CCCn2c(=O)c3cccn3c3ccccc32)c1C`, the viability index was 0.341.
`COc1ccc(OC)c(C2C3=C(CC(C)(C)CC3=O)N(c3ccc(Cl)c(Cl)c3)C3=C2C(=O)CC(C)(C)C3)c1` showed a viability index of 0.498.
Work on `CCOC(=O)NN=C(C)c1ccc(C(C)=NNC(=O)OCC)cc1` yielded a viability index of 0.768.
Molecule `COc1cc2nc(Nc3cccc(F)c3)nc(N)c2cc1OC` has a viability index of 0.585.
With `COc1ccc(C2=C(c3ccc(OC)cc3)C3(c4ccccc4)C(=O)C2(c2ccccc2)C2C(=O)N(c4ccccc4)C(=O)C23)cc1` (centres undefined) the viability index was 1.34.
`FC(F)(F)c1ccccc1NC(=S)N1CCCN(c2nc3ccc(Cl)cc3s2)CC1` showed a viability index of 0.722.
Molecule `CCn1ccccc1=Nc1cccc[n+]1CC` has a viability index of 0.771.
`COc1cc(OC)cc(C(=O)N2CCN(Cc3cccc(Br)c3)CC2)c1` gave a viability index of 0.97.
`CN(C)c1ccc(Nc2nc(NCC3CCCO3)c3ccccc3n2)cc1` (centres undefined) gave a viability index of 0.853.
In the case of `CCOC(=O)C1CCN(C(=S)Nc2ccc3nsnc3c2)CC1`, the viability index was 1.08.
Work on `COc1ccc(C2C(C(=O)Nc3cccc(OC)c3)c3ccccc3C(=O)N2C2CCCCC2)cc1` (centres undefined) yielded a viability index of 0.831.
`CCN(c1ccc(F)cc1)S(=O)(=O)c1ccc2[nH]cc(C(=O)NC(C)(C)C)c(=O)c2c1` gave a viability index of 0.95.
`O=C(Cc1ccccc1)NC(c1ccc(Cl)cc1)c1ccc2cccnc2c1O` (centres undefined) showed a viability index of 0.755.
With `Nc1c(C(=O)NCc2ccccc2)nnn1Cc1ccc(F)cc1Cl` the viability index was 0.819.
For `C=CCn1nc(C(=O)N2CCCC2)c2c1CCC(N1CCCCCC1)C2` (centres undefined), the viability index was 0.942.
